Assay results published in doi:10.1101/212704 (bioRxiv, 2017).

T1: GST-MAD1-NTD (human, UniProt Q9Y6D9 1-485)
T1 sequence (looked up): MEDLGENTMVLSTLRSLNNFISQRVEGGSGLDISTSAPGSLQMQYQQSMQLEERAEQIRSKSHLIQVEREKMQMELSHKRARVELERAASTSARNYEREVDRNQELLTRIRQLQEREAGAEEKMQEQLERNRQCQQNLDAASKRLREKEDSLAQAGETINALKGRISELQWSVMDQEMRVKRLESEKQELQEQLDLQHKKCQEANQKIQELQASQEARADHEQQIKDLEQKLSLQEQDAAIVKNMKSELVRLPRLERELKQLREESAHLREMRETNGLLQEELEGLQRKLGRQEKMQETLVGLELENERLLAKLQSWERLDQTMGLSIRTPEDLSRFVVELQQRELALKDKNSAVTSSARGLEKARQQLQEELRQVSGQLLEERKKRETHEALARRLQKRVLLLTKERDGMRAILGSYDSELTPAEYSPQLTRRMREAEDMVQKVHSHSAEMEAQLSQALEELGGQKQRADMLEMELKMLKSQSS

T2: GST-tagged MPS1 (UniProt P33981 1-857)
T2 sequence (looked up): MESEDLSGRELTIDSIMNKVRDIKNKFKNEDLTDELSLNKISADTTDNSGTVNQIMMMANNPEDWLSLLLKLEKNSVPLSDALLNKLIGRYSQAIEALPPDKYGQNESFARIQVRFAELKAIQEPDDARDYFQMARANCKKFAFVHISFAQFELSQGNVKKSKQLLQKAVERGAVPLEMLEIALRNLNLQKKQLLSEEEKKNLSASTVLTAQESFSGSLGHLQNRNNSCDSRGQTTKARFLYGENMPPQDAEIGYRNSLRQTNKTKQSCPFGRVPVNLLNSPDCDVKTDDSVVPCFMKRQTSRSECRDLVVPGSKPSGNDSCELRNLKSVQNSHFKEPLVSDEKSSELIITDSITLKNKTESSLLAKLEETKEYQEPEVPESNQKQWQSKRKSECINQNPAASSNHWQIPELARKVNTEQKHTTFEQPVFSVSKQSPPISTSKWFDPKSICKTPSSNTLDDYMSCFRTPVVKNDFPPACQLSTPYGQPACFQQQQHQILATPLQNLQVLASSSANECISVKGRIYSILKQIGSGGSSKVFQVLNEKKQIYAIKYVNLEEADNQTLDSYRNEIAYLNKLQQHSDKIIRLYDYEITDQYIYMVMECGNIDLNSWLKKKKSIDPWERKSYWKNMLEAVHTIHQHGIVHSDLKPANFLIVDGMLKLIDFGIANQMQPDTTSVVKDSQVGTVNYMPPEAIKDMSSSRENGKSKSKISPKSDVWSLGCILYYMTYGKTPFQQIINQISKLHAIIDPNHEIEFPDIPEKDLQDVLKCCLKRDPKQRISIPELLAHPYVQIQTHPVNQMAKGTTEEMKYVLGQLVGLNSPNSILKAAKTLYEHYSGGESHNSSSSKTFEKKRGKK


Legend:
GST-MAD1-NTD = target: T1, GST-MAD1-NTD; assay: pull-down
GST-tagged MPS1 = target: T2, GST-tagged MPS1; assay: pull-down

Binder	binding result (GST-MAD1-NTD)	binding result (GST-tagged MPS1)
6×His-tagged MAD[…]D (natural protein) not shown	binds	
untagged MAD2^L13A (natural protein) not shown	binds	
His-tagged MAD2^L13A (natural protein) not shown		binds
